Residue numbers refer to the chain shown, from its start. No constants are given. Whether binding was seen depends on the method and setting. Binding seen in cells or lysates may run through a third protein. Some results given as binding are weak or reduced against the parent protein; the word gives no strength. Where a sequence is shown, tags or fusion partners need not be part of it.

Protein sequences, listed by entry. Tags and fused reporters are not part of them.
UniProt P11142: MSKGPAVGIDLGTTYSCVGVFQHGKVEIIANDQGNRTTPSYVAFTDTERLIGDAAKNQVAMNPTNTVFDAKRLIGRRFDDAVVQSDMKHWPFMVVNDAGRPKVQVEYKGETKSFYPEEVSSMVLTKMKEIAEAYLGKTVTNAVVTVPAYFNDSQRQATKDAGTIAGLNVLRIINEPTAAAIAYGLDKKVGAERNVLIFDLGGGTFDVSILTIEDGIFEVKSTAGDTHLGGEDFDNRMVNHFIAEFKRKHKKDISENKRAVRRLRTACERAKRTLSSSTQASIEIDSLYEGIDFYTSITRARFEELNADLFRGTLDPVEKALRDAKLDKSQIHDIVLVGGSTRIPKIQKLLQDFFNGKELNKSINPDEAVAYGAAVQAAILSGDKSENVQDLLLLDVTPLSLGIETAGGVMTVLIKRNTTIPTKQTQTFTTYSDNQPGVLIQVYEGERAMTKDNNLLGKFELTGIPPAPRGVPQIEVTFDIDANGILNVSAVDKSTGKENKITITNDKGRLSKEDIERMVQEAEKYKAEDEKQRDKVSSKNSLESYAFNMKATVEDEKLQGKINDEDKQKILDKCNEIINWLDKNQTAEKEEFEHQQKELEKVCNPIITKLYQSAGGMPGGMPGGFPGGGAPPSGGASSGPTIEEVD

One test deals with T1, 3xFLAG-B12 (UniProt Q9NXW2).
T1 sequence: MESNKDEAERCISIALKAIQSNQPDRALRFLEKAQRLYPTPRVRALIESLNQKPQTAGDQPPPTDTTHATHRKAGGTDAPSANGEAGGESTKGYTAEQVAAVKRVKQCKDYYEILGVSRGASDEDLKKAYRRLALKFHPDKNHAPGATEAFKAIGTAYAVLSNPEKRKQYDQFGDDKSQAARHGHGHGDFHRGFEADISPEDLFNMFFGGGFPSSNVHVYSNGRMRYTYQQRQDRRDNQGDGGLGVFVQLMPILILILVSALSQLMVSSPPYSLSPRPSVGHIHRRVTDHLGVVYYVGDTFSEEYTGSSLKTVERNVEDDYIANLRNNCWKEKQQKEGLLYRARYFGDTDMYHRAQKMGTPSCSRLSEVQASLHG
The test can be described thus: co-IP; extracts of cells stably expressing 3xFLAG-B12 or 3xFLAG-B14 and parental cells; FLAG antibody-conjugated agarose beads; eluted with SDS sample buffer; immunoblot for endogenous proteins.

For another test, the target named is T2, 3xFLAG-B14 (UniProt Q8TBM8).
T2 sequence: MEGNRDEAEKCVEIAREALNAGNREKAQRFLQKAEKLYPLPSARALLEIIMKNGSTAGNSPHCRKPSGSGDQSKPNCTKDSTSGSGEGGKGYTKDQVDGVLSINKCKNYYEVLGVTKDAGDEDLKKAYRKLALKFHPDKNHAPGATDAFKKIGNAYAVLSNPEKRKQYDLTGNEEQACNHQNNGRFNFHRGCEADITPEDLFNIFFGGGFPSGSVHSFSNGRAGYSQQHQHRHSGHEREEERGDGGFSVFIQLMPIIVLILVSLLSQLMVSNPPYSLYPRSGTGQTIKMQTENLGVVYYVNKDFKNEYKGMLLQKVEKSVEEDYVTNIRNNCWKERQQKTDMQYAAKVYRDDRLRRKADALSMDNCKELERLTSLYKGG
The test is described as above.

A further test has as its target T3, FLAG-B12 [1–355] (UniProt Q9NXW2).
T3 sequence: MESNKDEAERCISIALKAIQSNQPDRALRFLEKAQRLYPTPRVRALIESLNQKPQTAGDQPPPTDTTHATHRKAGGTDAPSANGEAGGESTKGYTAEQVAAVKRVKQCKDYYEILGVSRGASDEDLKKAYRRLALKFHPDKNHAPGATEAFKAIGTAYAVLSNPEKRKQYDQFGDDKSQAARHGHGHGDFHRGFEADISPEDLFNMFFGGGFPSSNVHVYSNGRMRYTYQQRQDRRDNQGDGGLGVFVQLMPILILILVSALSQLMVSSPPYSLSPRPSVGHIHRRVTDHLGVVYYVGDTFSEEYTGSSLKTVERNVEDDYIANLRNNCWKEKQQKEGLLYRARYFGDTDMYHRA
Description: co-IP; HEK 293T transfected with FLAG-tagged constructs; lysis in 50 mM Hepes pH 7.5, 150 mM NaCl, 1% Triton X-100; FLAG antibody-conjugated agarose beads, 4°C, 2 h; immunoblot for endogenous Erlin1 and Erlin2.

The target in a further test is T4, FLAG-B12 [H138Q] (UniProt Q9NXW2).
T4 sequence: T1 sequence with H138Q
The test is described as above.

A further test concerns the target T5, FLAG-B12 [WT] (UniProt Q9NXW2).
T5 sequence: T1 sequence
The test is described as above.

As for Hsc70 (from UniProt P11142 1-646), the binding entry in the test with 3xFLAG-B12 and in the test with 3xFLAG-B14 was “binds” in each case.

B1: Erlin2 (endogenous) (protein, UniProt O94905 1-339)
chain: MAQLGAVVAVASSFFCASLFSAVHKIEEGHIGVYYRGGALLTSTSGPGFHLMLPFITSYKSVQTTLQTDEVKNVPCGTSGGVMIYFDRIEVVNFLVPNAVYDIVKNYTADYDKALIFNKIHHELNQFCSVHTLQEVYIELFDQIDENLKLALQQDLTSMAPGLVIQAVRVTKPNIPEAIRRNYELMESEKTKLLIAAQKQKVVEKEAETERKKALIEAEKVAQVAEITYGQKVMEKETEKKISEIEDAAFLAREKAKADAECYTAMKIAEANKLKLTPEYLQLMKYKAIASNSKIYFGKDIPNMFMDSAGSVSKQFEGLADKLSFGLEDEPLETATKEN
Take B1: the binding result in the test with 3xFLAG-B12 was “binds”; in the test with 3xFLAG-B14, “no binding”; with FLAG-B12 [1–355], “no binding”; in the test with FLAG-B12 [H138Q], “binds”; in the test with FLAG-B12 [WT] it was “binds”.

B2: Erlin1 (endogenous) (protein, UniProt O75477 1-348)
chain: MNMTQARVLVAAVVGLVAVLLYASIHKIEEGHLAVYYRGGALLTSPSGPGYHIMLPFITTFRSVQTTLQTDEVKNVPCGTSGGVMIYIDRIEVVNMLAPYAVFDIVRNYTADYDKTLIFNKIHHELNQFCSAHTLQEVYIELFDQIDENLKQALQKDLNLMAPGLTIQAVRVTKPKIPEAIRRNFELMEAEKTKLLIAAQKQKVVEKEAETERKKAVIEAEKIAQVAKIRFQQKVMEKETEKRISEIEDAAFLAREKAKADAEYYAAHKYATSNKHKLTPEYLELKKYQAIASNSKIYFGSNIPNMFVDSSCALKYSDIRTGRESSLPSKEALEPSGENVIQNKESTG
Consider B2, for which the binding entry with 3xFLAG-B12 is reported as “binds”; with 3xFLAG-B14, “no binding”; in the test with FLAG-B12 [1–355], “no binding”; with FLAG-B12 [H138Q], “binds”; in the test with FLAG-B12 [WT], “binds”.

The values are drawn from paper PMC5484543.
